Measured values published in PubChem BioAssay AID485281 (National Center for Advancing Translational Sciences (NCATS), 2010).
In all, about 350,000 compounds went through this assay and about 260 (0.074%) were called active. The inconclusive results got no clear call from the source; some entries with a clear call stand among them for comparison. Calls follow the shape of the dose curve; as a rule, active = well fitted inhibition curve with a large enough effect; inconclusive = small, poorly fitted or top-dose-only effect; inactive = no such curve, though single readings can be large or run the other way. Where the call is inconclusive, the potency comes from a doubtful curve fit.

The compounds below were run against Ferritin light chain (Equus caballus) (UniProt P02791) (assay: qHTS Assay for Identification of Novel General Anesthetics). Settings: apoferritin/1-aminoanthracene competitive binding, fluorescence; series mostly up to 77.5 µM.
Summary of the method: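 Horse-spleen apoferritin (10 uM) in 50% saturated 1-aminoanthracene in PBS was incubated 10 min at room temperature with compound. Fluorescence (ex 380, em 535 nm) was normalized to free and bound 1-AMA, with concentration-response fitted by a four-parameter Hill equation.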
Also: nearly all actives have a fitted effect of over 20% in size.
Potency is read from the fitted curve at half-maximal effect; tags tell the direction and shape of the fitted curve.

Sequence of UniProt P02791 (P02791 whole entry, looked up): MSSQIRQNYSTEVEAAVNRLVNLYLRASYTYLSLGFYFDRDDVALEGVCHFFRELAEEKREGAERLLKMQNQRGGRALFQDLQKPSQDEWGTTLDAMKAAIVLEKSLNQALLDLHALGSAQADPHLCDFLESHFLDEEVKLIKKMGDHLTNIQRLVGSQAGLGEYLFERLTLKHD

**Q.** With `O=C(C1CCC(CNS(=O)(=O)c2cccc3cccnc23)CC1)N1CCc2ccccc21` (stereo unspecified) as the compound, how does the Potency read?
**A.** Its Potency is inconclusive: 10 µM [inhibitor, partial curve].

**Q.** `COC(=O)CSC(=S)N1CCCC(C)C1` (stereo unspecified) was tested. Which Potency did it give?
**A.** The Potency was inconclusive: 28.2 µM [inhibitor, partial curve].

**Q.** For `C/C(=N/OCC(=O)Nc1ccccc1)c1cccs1`, which Potency is on record?
**A.** Its Potency is inconclusive: 44.7 µM [inhibitor, single point].

**Q.** For `O=C(CCc1nc(-c2ccc(Cl)cc2)no1)NC1CCCC1`, which Potency is on record?
**A.** Its Potency is “inactive”.

**Q.** `CC[N+]1(CC)CC2=Cc3c(ccc4ccccc34)CC2C1` (stereo unspecified) was tested. Which Potency did it give?
**A.** The Potency was “inactive”.

**Q.** `O=C(/C=C\NCC(=O)c1ccccc1)c1ccccc1` was tested. Which Potency did it give?
**A.** Its Potency is inconclusive: 15.8 µM [inhibitor, partial curve].

**Q.** How did the Potency turn out when `CCCn1nnnc1NCc1ccc(F)cc1` was run?
**A.** Its Potency is “inactive”.

**Q.** With `COc1ccc(C(=O)N(C)CCCC2CCCC2)cc1OC1CCN(C(C)=O)CC1` as the compound, how does the Potency read?
**A.** The Potency was “inactive”.

**Q.** With `Cc1ccc(-c2nc(CCN3C(=O)c4ccccc4C3=O)cs2)cc1` as the compound, how does the Potency read?
**A.** The Potency was inconclusive: 39.8 µM [inhibitor, partial curve].

**Q.** With `Cc1ccccc1OCC(=O)Nc1ccc(-c2nc3ncccc3o2)cc1` as the compound, how does the Potency read?
**A.** Its Potency is “inactive”.

**Q.** For `Cc1cccc(C)c1Nc1nnc(SCC(=O)c2ccc3c(c2)NC(=O)CO3)s1`, which Potency is on record?
**A.** Its Potency is inconclusive: 56.2 µM [inhibitor, single point].

**Q.** With `CC(Sc1ncc(C(F)(F)F)cc1Cl)C(=O)NC(N)=O` (stereo unspecified) as the compound, how does the Potency read?
**A.** Its Potency is inconclusive: 25.1 µM [inhibitor, partial curve].

**Q.** `O=C(NCc1ccccc1)c1ccc(CSc2nc3cccnc3n2Cc2cccc(F)c2)cc1` was tested. Which Potency did it give?
**A.** Its Potency is “inactive”.

**Q.** How did the Potency turn out when `C/C(=N\NC(=O)CNc1cccc(C(F)(F)F)c1)c1cccs1` was run?
**A.** Its Potency is inconclusive: 28.2 µM [inhibitor, partial curve].

**Q.** With `CN1CCC(=NNC(=O)CSc2ccc(Cl)cc2)CC1` as the compound, how does the Potency read?
**A.** Its Potency is inconclusive: 28.2 µM [inhibitor, partial curve].

**Q.** For `COc1ccc(Nc2cccccc2=O)cc1`, which Potency is on record?
**A.** Its Potency is inconclusive: 22.4 µM [inhibitor, partial curve].

**Q.** `Cc1ccc(/C=C/C(=O)c2ccccc2O)cc1` was tested. Which Potency did it give?
**A.** Its Potency is “inactive”.

**Q.** Which Potency does the source give for `Cc1ccc(C2=NN(CC(=O)NCCC(C)C)C(=O)CC2)cc1` here?
**A.** Its Potency is inconclusive: 11.2 µM [inhibitor, partial curve].

**Q.** How did the Potency turn out when `CN1CCN(c2ccc([N+](=O)[O-])c(-n3nc(-c4ccccc4)c4ccccc4c3=O)c2)CC1` was run?
**A.** The Potency was inconclusive: 17.8 µM [inhibitor, partial curve].

**Q.** `CC(C)(C)SCCNS(=O)(=O)c1ccc(F)cc1` was tested. Which Potency did it give?
**A.** The Potency was inconclusive: 35.5 µM [inhibitor, single point].

**Q.** For `CC(/C=N/NC(=O)c1cccnc1)=C\c1ccccc1`, which Potency is on record?
**A.** Its Potency is “inactive”.
